Reference: the supplement of paper PMC8512760
The list shows a part of the results. Repeats are few or missing, and single values can be far off.

Columns and labels:
Assay in all cases: cell viability relative to vehicle (% of vehicle); basal-like triple-negative breast cancer lines; higher = less cytotoxic
Details in all cases: 10 µM; 72 h
HCC-1143 = test system: HCC-1143
HCC-1187 = test system: HCC-1187
MDA-468 = test system: MDA-468
SUM-149 = test system: SUM-149
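Further: stably firefly luciferase-GFP labeled cells in 96-well plates, viability read as luciferase photon flux after d-luciferin addition, treated wells normalized to vehicle wells, single-dose high-throughput screen.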

| Structure (SMILES) | cell viability (HCC-1143) | cell viability (HCC-1187) | cell viability (MDA-468) | cell viability (SUM-149) |
| --- | --- | --- | --- | --- |
| Nc1nc(N)nc(NC2CC2)n1 [Cyromazine] | 101 | 105 | 113 | 97.8 |
| C[N+]1(C)[C@@H]2C[C@@H](OC(=O)C(CO)c3ccccc3)C[C@H]1[C@@H]1O[C@@H]12.[Br-] (some centres not stated) [Methscopolamine] | 83.4 | 76.3 | 93.5 | 133 |
| N#Cc1ccccc1-c1cc(-c2ccccn2)cn(-c2ccccc2)c1=O [Perampanel] | 91.9 | 91.8 | 89.7 | 126 |
| Cc1cc(O)ccc1Cl [Chlorocresol] | 67.5 | 82.1 | 94.8 | 78.5 |
| O=P1(N(CCCl)CCCl)NCCCO1 (configuration not stated) [Cyclophosphamide] | 86.1 | 89.7 | 88.3 | 108 |
| CN(C)C1C(=O)C(C(N)=O)=C(O)C2(O)C(=O)C3=C(O)c4c(O)cccc4C(C)(O)C3C(O)C12 (configuration not stated) [Oxytetracycline (Terramycin)] | 85.4 | 75.1 | 85.1 | 111 |
| CC(C)N(CCNC(=O)CN1CCCC1=O)C(C)C [Pramiracetam] | 124 | 106 | 102 | 117 |
| CCC(C(N)=O)N1CCCC1=O (configuration not stated) [Levetiracetam] | 114 | 111 | 93.4 | 81.1 |
| O=c1[nH]c2ccccc2n1CCCN1CCC(n2c(=O)[nH]c3cc(Cl)ccc32)CC1 [Domperidone] | 109 | 147 | 155 | 167 |
| Cl.NCC(O)c1ccc(O)cc1 (racemic) [(+,-)-Octopamine HCl] | 75 | 92.6 | 113 | 99.2 |
| Cc1cccc(C(C)c2cnc[nH]2)c1C.Cl (configuration not stated) [Dexmedetomidine HCl] | 87.8 | 99 | 99.9 | 101 |
| CN1C2CCC1CC(OC(=O)C(CO)c1ccccc1)C2.CN1C2CCC1CC(OC(=O)C(CO)c1ccccc1)C2.O.O=S(=O)(O)O (configuration not stated) [Atropine] | 78.9 | 99.1 | 97.7 | 86.3 |
| CC(=O)OC1CC2CCC3C(CCC4(C)C3CC([N+]3(C)CCCCC3)C4OC(C)=O)C2(C)CC1[N+]1(C)CCCCC1.[Br-].[Br-] (configuration not stated) [Pancuronium dibromide] | 85.6 | 86.5 | 95.1 | 117 |
| CC12CCC3C(CC=C4CC(O)CCC43C)C1CCC2=O (configuration not stated) [Dehydroepiandrosterone (DHEA)] | 94.2 | 112 | 114 | 129 |
| CCCCCCCCCCCCCCCC[n+]1ccccc1.[Cl-] [Cetylpyridinium Chloride] | 16.8 | 21.6 | 27.1 | 19.9 |
| CC(NC(C)(C)C)C(=O)c1cccc(Cl)c1.Cl (configuration not stated) [Bupropion hydrochloride] | 69.5 | 90.9 | 114 | 95.2 |
| O=C(O)CCCc1ccc(N(CCCl)CCCl)cc1 [Chlorambucil] | 99 | 105 | 115 | 102 |
| CCCCCCCCCCCCCCCC[N+](C)(C)C.[Br-] [Cetrimonium Bromide (CTAB)] | 23.3 | 22.6 | 30.7 | 20 |
| O=C(OC1C[N+]2(CCCOc3ccccc3)CCC1CC2)C(O)(c1cccs1)c1cccs1.[Br-] (configuration not stated) [Aclidinium Bromide] | 87.8 | 85.4 | 97.3 | 119 |
| C[C@]12CC[C@H]3[C@@H](CC[C@@]45O[C@@H]4C(O)=C(C#N)C[C@]35C)[C@@H]1CC[C@@H]2O [Trilostane] | 125 | 59 | 111 | 103 |
| Cn1cc(C2=C(c3cn(C4CCN(Cc5ccccn5)CC4)c4ccccc34)C(=O)NC2=O)c2ccccc21 | 57.2 | 33.6 | 49.3 | 76.4 |
| Br.COC(=O)C1=CCCN(C)C1 [Arecoline hydrobromide] | 79.5 | 91.8 | 114 | 104 |
| CCOC(=O)c1cncn1C(C)c1ccccc1 (configuration not stated) [Etomidate] | 99.4 | 98.8 | 89.6 | 117 |
| CCC1(c2cccc(O)c2)CCCCN(C)C1.Cl (configuration not stated) [Meptazinol HCl] | 81.2 | 91.6 | 97.5 | 94.7 |
| Cc1cccc(Cc2cnc[nH]2)c1C.Cl [Detomidine HCl] | 77.1 | 87.3 | 86.6 | 106 |
| CCC[C@H](C)[C@@]1(CC)C(=O)N=C([O-])NC1=O.[Na+] [Pentobarbital sodium salt] | 65.2 | 71.1 | 98.8 | 97.5 |
| O=C1CCC2(O)C3Cc4ccc(O)c5c4C2(CCN3CC2CC2)C1O5 (configuration not stated) [Naltrexone] | 94.6 | 81.6 | 86.8 | 126 |
| CC(C)CC(CN)CC(=O)O (configuration not stated) [Pregabalin] | 85 | 99.1 | 82.2 | 117 |
